The whole screen tested about 310,000 compounds, of which about 14,000 (4.5%) showed an effect of 50% or more. The effect is printed as a negative number. This is one part of the list.
What follows are compounds tested against human ether-à-go-go-related gene (hERG) potassium channel (human, UniProt Q12809) (assay: primary screen, population patch clamp on CHO cells stably expressing hERG).
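Further: peak tail current of the secondary pulse compared with the same well before compound.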

Chain of human ether-à-go-go-related gene (hERG) potassium channel (Q12809 whole entry, looked up): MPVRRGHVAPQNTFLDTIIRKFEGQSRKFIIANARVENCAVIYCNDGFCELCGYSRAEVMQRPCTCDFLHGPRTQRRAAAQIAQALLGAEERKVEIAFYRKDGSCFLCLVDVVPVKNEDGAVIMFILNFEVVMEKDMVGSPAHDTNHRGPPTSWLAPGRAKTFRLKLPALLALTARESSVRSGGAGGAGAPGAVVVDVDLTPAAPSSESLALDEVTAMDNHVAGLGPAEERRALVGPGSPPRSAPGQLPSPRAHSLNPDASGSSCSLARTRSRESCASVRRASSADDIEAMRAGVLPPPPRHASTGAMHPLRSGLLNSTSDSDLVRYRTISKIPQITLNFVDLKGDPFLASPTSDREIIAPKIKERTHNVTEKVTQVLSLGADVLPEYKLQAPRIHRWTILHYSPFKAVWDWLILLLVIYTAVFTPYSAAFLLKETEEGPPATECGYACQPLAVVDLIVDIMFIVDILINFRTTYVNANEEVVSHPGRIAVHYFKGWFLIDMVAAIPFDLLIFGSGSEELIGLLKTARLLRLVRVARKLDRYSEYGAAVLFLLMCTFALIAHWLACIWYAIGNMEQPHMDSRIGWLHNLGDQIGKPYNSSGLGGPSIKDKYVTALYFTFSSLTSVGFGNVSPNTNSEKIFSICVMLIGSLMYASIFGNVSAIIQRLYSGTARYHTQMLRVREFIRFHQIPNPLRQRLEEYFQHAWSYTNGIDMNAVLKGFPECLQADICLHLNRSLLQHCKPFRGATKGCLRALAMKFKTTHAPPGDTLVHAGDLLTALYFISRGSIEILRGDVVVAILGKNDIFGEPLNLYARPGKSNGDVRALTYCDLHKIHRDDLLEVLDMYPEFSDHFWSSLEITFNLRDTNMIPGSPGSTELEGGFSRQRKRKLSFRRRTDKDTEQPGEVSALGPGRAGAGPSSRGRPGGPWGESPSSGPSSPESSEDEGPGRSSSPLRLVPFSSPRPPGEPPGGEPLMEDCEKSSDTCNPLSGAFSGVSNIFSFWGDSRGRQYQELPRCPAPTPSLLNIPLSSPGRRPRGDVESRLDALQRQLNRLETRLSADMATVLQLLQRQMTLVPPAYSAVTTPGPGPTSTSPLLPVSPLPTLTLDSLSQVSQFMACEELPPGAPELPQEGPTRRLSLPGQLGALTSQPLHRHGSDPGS

Compared with COCCNC(=O)c1cn(C(C)c2ccccc2F)nn1 (centres unmarked), O=C(NCCc1cn2ccccc2n1)c1ccccc1F is higher in “hERG current change (%, negative = inhibition) at 10uM” value: -1.84% for the first, 1.56% for the second.

Going from COc1cc(OC)c(/C=N/NC(=O)c2ccc([N+](=O)[O-])cc2)cc1Br to COc1cccc(/C=N/NC(=O)C(=O)NCc2ccco2)c1O, the “hERG current change (%, negative = inhibition) at 10uM” value falls from 15.4% to 4.17%.

Compared with CC1=C(C#N)C(NC(=O)C(C)(C)C)(C(F)(F)F)C(=O)N1 (centres unmarked), Cc1cc(C(F)(F)F)nc(SCC(=O)Nc2nccs2)n1 is higher in “hERG current change (%, negative = inhibition) at 10uM” value: 1.3% for the first, 11% for the second.

Compared with CCN(CC)c1ccc(NC(=O)CN2CCN(S(=O)(=O)c3cc(Cl)ccc3OC)CC2)cc1, COc1ccc(-c2c(C)oc3c(CN4CCN(CCO)CC4)c(O)ccc3c2=O)cc1OC is higher in “hERG current change (%, negative = inhibition) at 10uM” value: 10.1% for the first, 21.9% for the second.

Compared with COc1ccc(NC(=O)COC(=O)CCc2ccccc2)c(OC)c1, CCc1ccccc1OCC(=O)OCC(=O)N1CC(=O)Nc2ccccc21 is higher in “hERG current change (%, negative = inhibition) at 10uM” value: 10.6% for the first, 19.4% for the second.

Going from O=C(NC(Cc1ccccc1)C(=O)O)/C(=C\c1ccc(Br)cc1)NC(=O)c1ccc(Br)o1 (centres unmarked) to CCOc1ccc(NC(=O)c2cccc(NC(=O)c3ccccc3)c2)cc1, the “hERG current change (%, negative = inhibition) at 10uM” value falls from 13% to 2.31%.

Compared with O=C1OC(OC(=O)c2ccccc2Br)C(N2CCOCC2)=C1Cl (centres unmarked), O=C(OCCN1C(=O)c2cccc3c(N4CCOCC4)ccc(c23)C1=O)c1ccccc1Cl is higher in “hERG current change (%, negative = inhibition) at 10uM” value: -1.33% for the first, 15.8% for the second.

Compared with COc1ccc(CC(=O)Nc2nncs2)cc1OC, COc1cc(NC(=O)C2=CC(c3cccs3)=NS(=O)(=O)N2C)cc(OC)c1OC is lower in “hERG current change (%, negative = inhibition) at 10uM” value: 3.84% for the first, -1.96% for the second.

Going from CC1CC2(CCCCC2)Nc2c1ccc1ccccc21.Cl (centres unmarked) to Cc1ccc(O)c(-c2cc3ccccc3[nH]2)c1, the “hERG current change (%, negative = inhibition) at 10uM” value falls from 5.87% to -15.8%.

First: Cc1cc(C(=O)CCC(=O)N2CCN(S(=O)(=O)c3cccs3)CC2)c(C)s1
Second: CCCC(=O)N1CCN(c2nc3ccc(CC)cc3s2)CC1
The “hERG current change (%, negative = inhibition) at 10uM” value of the first is lower: -34.7% for the first, -23.4% for the second.

First: COc1nc(NCc2cccnc2)nc(NC2CCCCC2)n1
Second: COc1cccc(-c2nnc(NC(=O)C3CCCCC3)o2)c1
The “hERG current change (%, negative = inhibition) at 10uM” value of the first is lower: -29.8% for the first, -0.832% for the second.

Compared with O=C(NCC(c1cccnc1)N1CCN(c2ccccc2)CC1)OCc1ccccc1 (centres unmarked), CN(Cc1ccccc1)C(=O)C1CCC(CNS(=O)(=O)c2cccc3cccnc23)CC1 (centres unmarked) is higher in “hERG current change (%, negative = inhibition) at 10uM” value: -45.9% for the first, -25.8% for the second.

Going from Cc1ccc(S(=O)(=O)N(CCC(=O)O)Cc2ccc(Cl)cc2)cc1 to COc1ccc(OCC(=O)O/N=C(\N)Cc2ccc(Cl)cc2)cc1, the “hERG current change (%, negative = inhibition) at 10uM” value falls from 5.13% to -1.67%.

First: COCCn1c(SCC(=O)NC2CCCCC2)nc2c(c1=O)SCC2
Second: c1cnc2ccc(C(c3nnnn3C3CCCCC3)N3CCCCC3)cc2c1 (centres unmarked)
The “hERG current change (%, negative = inhibition) at 10uM” value of the first is higher: -11.2% for the first, -15.6% for the second.

First: CC(=O)ONC(=Nc1ccccc1)c1nonc1N
Second: CC(C)N(C)CCOC(=O)c1ccccc1Cl.Cl
The “hERG current change (%, negative = inhibition) at 10uM” value of the first is higher: 15.5% for the first, 0.168% for the second.

First: Nc1c(NCc2ccccc2)c2ccccc2oc1=O
Second: COC(=O)c1cc(N=Cc2c(O)c3ccccc3oc2=O)cc(C(=O)OC)c1
The “hERG current change (%, negative = inhibition) at 10uM” value of the first is lower: -3.8% for the first, 21.8% for the second.

First: COc1cc(C2Nc3ccc4ncccc4c3C3=C2C(=O)CCC3)cc(OC)c1OC (centres unmarked)
Second: COc1cccc2cc(-c3cn4ccc(C)cc4n3)c(=O)oc12
The “hERG current change (%, negative = inhibition) at 10uM” value of the first is lower: -26.7% for the first, 3.88% for the second.

Going from Cc1ccc(C)c(NC2CCCCC2NS(=O)(=O)c2ccccc2)c1 (centres unmarked) to CCOC(=O)c1c(-c2ccc(C)cc2)csc1NC1=NS(=O)(=O)c2ccccc21, the “hERG current change (%, negative = inhibition) at 10uM” value falls from 12.9% to -1.41%.

First: Cc1ccc(CSc2nn3c(=O)c(C)nnc3s2)cc1
Second: CCN(CC)CCCN=Cc1c(O)n(-c2ccc(C)cc2)c(=O)c2ccccc12
The “hERG current change (%, negative = inhibition) at 10uM” value of the first is lower: -13.9% for the first, -5.54% for the second.

Going from O=[N+]([O-])c1ccc(COc2cccc(CNc3ccc(Br)cc3)c2)cc1 to C=CCN(CC=C)C(=O)CN1C(=O)NC(C)(c2ccc3cc(OC)ccc3c2)C1=O (centres unmarked), the “hERG current change (%, negative = inhibition) at 10uM” value rises from -5.28% to 7.26%.

Compared with Cc1ccc(N(C(=O)Cn2nnc(-c3ccc(F)cc3)n2)C(CC(C)C)C(=O)NCC2CCCO2)cc1 (centres unmarked), O=C(NCC1CCCO1)c1cnn2c(C(F)F)cc(C3CC3)nc12 (centres unmarked) is higher in “hERG current change (%, negative = inhibition) at 10uM” value: -26.1% for the first, -2.7% for the second.

Going from Cc1nnc(NC(=O)C2CCN(S(=O)(=O)c3cc([N+](=O)[O-])ccc3Cl)CC2)o1 to N#C/C(=C\c1ccc(F)c(Br)c1)C(=O)NC1CC1, the “hERG current change (%, negative = inhibition) at 10uM” value falls from -12.8% to -29.2%.
